Experimental findings from the supplement of paper PMC12632987 are described below.

The full ranking holds about 4,500 sequences; the median of “median log2 fold change of GCK-ALFA target abundance (FLAG IP / Myc IP barcode read proportion)” is about 0.078, and the lowest 2% start at about -0.6. Some of the results follow.

The labels stand for the following.
B1: GBRAP_78_6581 (protein)
chain: EVEEEFDKAMEHLGEAAKLARQFPQEVRDELLYLLVEAASYLLEAEEEGFDLEELEKALEALEKALKLAKQLDTPVAKELSKELEKAIEHLKKAIELLKK
B2: GBRAP_128_3351 (protein)
chain: LDEEKLEKVRKMAEEMVKADVEKTYELMKELAAFIGTLDDETAEAAAEIVIEYLPKFTKEQLDAIADALREMRPTLDPFKANLAAEVEVEALNEAEELEE
B3: GBRAP_26_5498 (protein)
chain: FIDEVLRELREEIRRILADESPELQAAVIAEAEDLLLEAEEEIEENVDDEEKIKEAIERAVEELREDLERFGLSEEKVERIVEALREALEKIAKHIKEEA
B4: GBRAP_128_3182 (protein)
chain: SVEEVVKKTREAMEKIKNSSPEEARKIAEELFDWLKTLSLEEAEAAVEEIKKLLPELSPEHLEIIADVAREHRPTFTPEKAELVADVEVEALNLLEEKEE
B5: GBRAP_160_4715 (protein)
chain: EERAKKLIEFVNEEFEEAKELIKGESIEQRAIIIEGTVGEIIMEFFEDENASDELIDEVLKIGDEAVATLLANPDLTDEEIEALLDEAREKIKEAIKKHL
B6: GBRAP_160_4214 (protein)
chain: SEKIEKIIEELREETEEVIESIPELSPEEVANLADVEFGSVLMEAVDLGEENDEILDVIAEAADRAVELLLSNKDASPEELAKGLREIAEEAIERIKKIA
B7: GBRAP_184_5040 (protein)
chain: KIFEETIEFNNLEELKKKLEELKEKVKNHKGKLIVHVIAPKFTKEMVKTLMEKLKEIKDKGYAKEVTVGLDGDMSEEVIDLAVKLADEAGINLVLALDEE
B8: GBRAP_160_4558 (protein)
chain: SEEREKAIEEIRELLEESIELMKDLSPEEIVTLWEGTLGEALAIVFESDAFTDEEEEVAGEEADRARARMRAARDLSPEELVALAREEAERLIEALRELE
B9: GBRAP_150_3921 (protein)
chain: DLEEALLIASTLIDILEAILDGELSLLPHALKLAKDLLEEAKEISEEIKKLAEELLKLLEKAQKLLKAGGDKKEILKLVEEALKVAREIEKKLEELIKKS
B10: GBRAP_83_6936 (protein)
chain: KEKITVVANSDTIKEAFEIAIDLHKEEGLEVELEVSITREDIPLLLEEFEKLAKAGVDVELNILLTGATEEEAEKLKKELEEIAKKYGVKAKINVELVEP
B11: GBRAP_160_4533 (protein)
chain: SESLEKWEELLEETAEEAIELVEGETAEQRATIVDVEFGSFALELAEDERASDEMVDVVLKTRDELVETILANPDLTDEELEELIEEAVEKTIEELKKLF
B12: GBRAP_95_7019 (protein)
chain: DDDQLAADSLAEVLETYVELGEEEKAYEAAKELVKVIAEDPSVKFPSDLSPESARIIAKAAIENLSKEDAARVLETLAASAKDPEVKAIAEAALAEVKAK
B13: GBRAP_57_6451 (protein)
chain: MTKEEKAEKIAEKAIKAVTETDDKELALKYFEELLKLLSKESLLDVLLIVDPSARADLSKEELIERIVEIAKKYLDAGDKQGFLDLIDLVLGQIDMEASE
B14: GBRAP_78_6713 (protein)
chain: EVEKLLEEAIKTLNEAAKAALELPEERANEILDLLVEAANLLHEVMEEGVSKEEALKLLEEAKKLLEKALKLLGEEDKELRKLVEEAIKLVEKAIKKLKE
B15: GBRAP_125_3055 (protein)
chain: SREEAIENLLRFAKRLGLSEDDVEYLRELAKAGSVKNTLIAIALALGYEELADALEKLTEEEVIELLKRLSEELEANPELTPEEVKELALELAKELLEKR
B16: GBRAP_166_4984 (protein)
chain: MEEELVEELKKYLEELAEKMKEAGPEERQELVAEAAERLAEAREKGLSREKLGELVEYLLRLAREVGIPISAVEGALSILADLDEEEIDILDEAARRVAA
B17: GBRAP_184_5036 (protein)
chain: KVFEATIEAENKEELEAKLAALAEEVKGTGADLIVLADLENPTKEMVTTLLEGLGAMKKAGDVSSVTIGFRRELSEEVTDVAIETGDKYGVKVVLPISDE
B18: GBRAP_128_3324 (protein)
chain: MDEAAIEEAKRLAEEMVKASIEEAKELTKRFVALLGTLTPEEREIAAEIFEEELKKLSAEKLEAVADTLREQRPTLDPETAEVVADLEVEALNEAEEKEE
B19: GBRAP_52_6138 (protein)
chain: MEEELRAKAEEIIALVKAGKLEEARALARELAESLNDEELRLFADEFAKLIKELPKEELDAAAEALDIIVDELEAVGHDEELISYLLGKGTKAMYEVELK
B20: GBRAP_11_2726 (protein)
chain: RKETILKFAKEAEALAKEIEKLIKEGPTKEGLEKLAKKAKALYEAAKKAGLPEDIVETLKIAAELLKEAIADPKNAEKYLREAAAAFRVAAGLLLLEAEE
B21: GBRAP_160_4065 (protein)
chain: EEELEKLKKEIDEIVEEAIEMMKDETHEQRVTIARVMKGEVVLLLSEDENVSEEAEDEADEIGDETVETIENNPDLTLEEIEKLLRETAEKIKEALDKHS
B22: GBRAP_117_2592 (protein)
chain: SATREAARAKIRATVAEVEALFKELAGLSPEEQAEALAAMRERVKAVLREVIEELGEEEAEELLDEALLDTDAETYFFLESVREDTLEELEEEEEEEERE
B23: GBRAP_80_6842 (protein)
chain: AQAALAAARARLYALLPEAAPLVDEVIALARELGVPDSVIADYVAALAELAAEDPERARELLEELLADLKELKAEGDYANAEAVLRGYAGDALMEAEELR
B24: GBRAP_128_3284 (protein)
chain: MDEELLAEAKALIDQIVNGPLEEVPALTRRLAELLEQMSDEERDKVVDYFEKEAEKMSEEKLEAVMDELERLRPQMSPLVQNYVADMMTILGEQLLELEE
B25: GBRAP_80_6822 (protein)
chain: MEEELEANLKALEAVDPEIAKIVREIVEIARELGVPLETLVRLAKAILELAKVDKEKARELAEELLEELREEREEGDREGALAELVDAESEALLEVEELE
B26: GBRAP_128_3285 (protein)
chain: MDEERLEEAFELIEKIRDSELEEVPALTAELVELMEKMSEEELDLVLEYFEEEAEKMSEEKLEAVMDTLRELRPTASPLVQNYLADMMVVLGEKLLELEE
B27: GBRAP_128_3187 (protein)
chain: SVEEVKKKTREAMEKIKNSDKETAEKIAKELFESLLTLSLEEAEAAIEVIEEKLPEFSKEKLEIIADVAREYRPKADPEKARLIAGLEVEALNEIEELEE
B28: GBRAP_166_4894 (protein)
chain: AVEEAIKRIKAIADETIKNIEELTEEEIQEAFIEIAEIVREAGRSEELIKTAAEETTRIVEAAVKAGFDWETLKSLALAAFGDDEELLDTLEKELEKSKK
B29: GBRAP_122_2944 (protein)
chain: GARQAELEALIDAMIAALAAGDDAALAAAARALVALFATVTPEEARAAIEALIERLAPDPEALERALQALLAAFYEQQPQTPAQEAAADLVAERFDELSE

Chain of GABARAP, O95166 (O95166 whole entry, the tested form may be a part): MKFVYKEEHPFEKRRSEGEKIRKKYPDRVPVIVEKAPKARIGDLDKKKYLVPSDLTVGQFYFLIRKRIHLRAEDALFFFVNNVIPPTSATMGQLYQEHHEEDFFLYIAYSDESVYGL

In the assay the target is GABARAP, O95166. Kind of assay: median log2 fold change of GCK-ALFA target abundance (FLAG IP / Myc IP barcode read proportion) (log2 ratio); each designed protein is fused to an ALFA-tag nanobody in HEK293 cells to bring the named protein to FLAG-tagged glucokinase (GCK); Myc marks an untargeted standard; higher = target protein stabilised (more abundant). The note with it: target protein: 3xFLAG-MCP-GCK-ALFA reporter; HEK293 landing pad (RPLP). The method in brief:
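HEK293 landing-pad cells received a recombined binder library fused to the ALFA nanobody and were induced with 2 μg mL^−1 doxycycline, then transfected with a plasmid encoding a FLAG-tagged target and a Myc-tagged standard. Lysates were collected after 48 h for anti-FLAG and anti-Myc immunoprecipitation, and the circular RNA barcodes were reverse transcribed, amplified and sequenced. Target abundance for each binder is the median log2 ratio of FLAG to Myc barcode read proportions. Barcodes had to reach a proportion of at least 10^−7 in both replicates, each binder needed at least 3 barcodes per replicate, a pseudocount of 10^−6 was applied, and the two replicates were pooled.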
Turning to B1, the “median log2 fold change” value is -0.473.

Regarding B2, the “median log2 fold change” value is 0.0962.

On to B3, for which the “median log2 fold change” value came to 0.14.

On to B4, for which the “median log2 fold change” value is 0.238.

For B5, the “median log2 fold change” value was 0.156.

As to B6, the “median log2 fold change” value was -0.179.

Turning to B7, the “median log2 fold change” value was 0.311.

As for B8, the “median log2 fold change” value is -0.0658.

Take B9: the “median log2 fold change” value is -0.0556.

With B10, the “median log2 fold change” value was 0.0302.

As for B11, the “median log2 fold change” value is -0.528.

For B12, the “median log2 fold change” value was found to be 0.216.

Turning to B13, the “median log2 fold change” value stood at 0.297.

Turning to B14, the “median log2 fold change” value worked out at 0.142.

As to B15, the “median log2 fold change” value was -0.0884.

Regarding B16, the “median log2 fold change” value stood at 0.23.

As to B17, the “median log2 fold change” value is -0.117.

Regarding B18, the “median log2 fold change” value amounted to 0.164.

Consider B19, for which the “median log2 fold change” value was determined as 0.101.

Regarding B20, the “median log2 fold change” value turned out to be 0.0545.

Turning to B21, the “median log2 fold change” value was -0.103.

On to B22, for which the “median log2 fold change” value worked out at 0.191.

For the molecule B23, the “median log2 fold change” value was -0.0772.

For the molecule B24, the “median log2 fold change” value turned out to be 0.0184.

As for B25, the “median log2 fold change” value is -0.574.

B26: the “median log2 fold change” value was -0.339.

Regarding B27, the “median log2 fold change” value turned out to be 0.435.

As for B28, the “median log2 fold change” value is 0.269.

In the case of B29, the “median log2 fold change” value came out at 0.224.
